Test results as given in the supplement of paper PMC10126150.
Sequences with one replicate were seen in a single cluster, so their values are uncertain.

The sequences below were run on ATP (assay: switch fluorescence ratio, 500 uM ATP over buffer (Cy3 cluster intensity, sum of 5 cycles each) (fold (ratio)); higher = stronger signal-on switching upon ATP binding; sequences stand for … in TCGTCGGCAGCGTCAGATGTGTATAAGAGACAGTTTTTTTTTTTTTTTTTTTTTTTTT…TC). Conditions: aptamer strand: ATP DNA aptamer (quencher-CACCTGGGGGAGTATTGCGGAGGAAGG + anchor), 100 nM annealed; ATP concentration: 500 uM; one replicate.
How it was run: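 Switching-strand clusters labelled with Cy3 on a modified Illumina MiSeq flow-cell were annealed to 100 nM quencher-labelled ATP aptamer, imaged in selection buffer, and re-imaged after 15 min with 500 uM ATP at 22 °C. This was done over five cycles with NaOH stripping and re-annealing in between. The fluorescence ratio is summed target-cycle over summed buffer-cycle Cy3 intensity per cluster, averaged per switch-domain sequence, excluding clusters outside 100-1000 RFU.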
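Also: ATP exposure 15 min at 22 °C before imaging.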

Sequence	switch fluorescence ratio
TACCTGTACG	1.18
TACCTTATCA	1.05
TACCTTATTA	1.07
TACCTTGA	1.08
TACGAAAGGG	1.11
TACGACGTAA	3.15
TACGACTCCC	1.77
TACGAGAGGC	1.07
TACGAGTACG	1.1
TACGATGGGC	1.05
TACGCACTAT	1.51
TACGCAGAGG	1.23
TACGCATGTG	1.03
TACGCCGGTT	0.95
TACGCGTACG	1.07
TACGCTAGGG	1.05
TACGCTCATG	1
TACGCTCTT	1.07
TACGGAAAT	1.62
TACGGACCCT	1.08
TACGGATAG	1.03
TACGGCAAGG	1.07
TACGGCCGTC	1.05
TACGGCGGTC	0.996
TACGGCTAGT	1.02
TACGGCTTCA	1.04

Sequence	switch fluorescence ratio
TACGGCTTGG	1.03
TACGGCTTGT	1.04
TACGGGATCC	1.03
TACGGGATCG	0.995
TACGGGCGAG	1
TACGGGGGGC	1.03
TACGGGGTTA	1.01
TACGGGTGGC	1.01
TACGGTAATC	1.13
TACGGTGAAA	0.996
TACGGTGTTT	1.08
TACGGTTCAT	1.06
TACGTAATAG	2.94
TACGTCACGG	1.58
TACGTCAGTA	1.02
TACGTCCCCA	1.13
TACGTCGAGT	0.994
TACGTTAAAT	1.13
TACGTTAACT	1.13
TACGTTATGA	1.16
TACTAACGA	1.37
TACTAGAAGC	1.02
TACTAGCATG	0.973
TACTAGGGCG	1.05
TACTAGGGGC	1.08
TACTAGTCTT	0.989

Sequence	switch fluorescence ratio
TACTATAGCA	1.04
TACTATCAGA	0.987
TACTATTTAA	1
TACTCACCTC	1.26
TACTCAGGGC	1.04
TACTCGCGGG	0.972
TACTCGGAAT	1.2
TACTCGGCAC	3.89
TACTCGGCGC	1.36
TACTCTCAGG	1.51
TACTCTTTTG	0.985
TACTGAAAAT	1.11
TACTGACTTA	1.17
TACTGAGGTT	0.986
TACTGATCTG	1.01
TACTGCATTT	1
TACTGGGTTA	0.992
TACTGGGTTG	0.994
TACTTAACG	1.2
TACTTACAG	1.17
TACTTATTTA	0.993
TACTTCCTGA	1.05
TACTTGATCA	1.01
TACTTGGGGA	0.963
TACTTGTAGA	1.03
TACTTTATAA	1.08

Sequence	switch fluorescence ratio
TACTTTATAC	1.14
TACTTTGGCG	0.959
TAGAAACCGG	1.07
TAGAAATAAA	0.985
TAGAAATCAG	1
TAGAAATCCT	1.17
TAGAACAATG	1.01
TAGAACACTA	1.02
TAGAACAGCG	0.974
TAGAACGCGG	0.985
TAGAAGCAG	0.981
TAGAAGCCTA	0.957
TAGAAGCTGG	0.994
TAGAAGTTCG	0.956
TAGAATACAC	1.08
TAGACACTGT	1.01
TAGACAGGGC	1.04
TAGACATCAT	0.979
TAGACTCCCG	1.31
TAGACTCGAC	1.02
TAGAGACGT	1.02
TAGAGAGTCA	0.999
TAGAGCATTC	1.12
TAGAGCCTTG	0.968
TAGAGCTGTG	0.974
TAGAGGACA	1.02

Sequence	switch fluorescence ratio
TAGAGTAACT	1.01
TAGAGTAGGG	0.961
TAGAGTTACA	1
TAGAGTTTTT	0.998
TAGATAACTT	1.02
TAGATAATAC	1.6
TAGATAGGAC	1.01
TAGATAGGGT	0.97
TAGATTACTC	0.987
TAGATTAG	1.04
TAGCAAGGGA	1
TAGCACTCTA	1.08
TAGCACTGGC	1
TAGCAGAGTT	0.986
TAGCAGCAGC	0.981
TAGCATAACT	1.23
TAGCATAGTG	0.978
TAGCCACGTC	1.03
TAGCCCAAAA	0.997
TAGCCCCAGT	1.2
TAGCCCCGCG	1
TAGCCCCTCG	0.998
TAGCCGACGC	1.94
TAGCCGCGTC	1.03
TAGCGAATT	0.949
TAGCGACTAA	1

Sequence	switch fluorescence ratio
TAGCGATCGT	1.02
TAGCGCCGTT	1.05
TAGCGCTAGT	0.983
TAGCGCTGAG	1.02
TAGCGCTTCG	1.02
TAGCGGCAGA	1.07
TAGCGGTGCT	1.08
TAGCTCACTT	0.999
TAGCTCGCTT	1
TAGCTGAAC	1.28
TAGCTGACTC	1.54
TAGCTGGGTA	0.949
TAGCTGTCCT	1.03
TAGCTTGACA	1.01
TAGCTTGGAG	1.02
TAGCTTTGCG	1.07
TAGGAATCGG	0.999
TAGGACCATT	1.08
TAGGACTGCA	1.06
TAGGAGTACG	1.01
TAGGAGTCTG	1.02
TAGGATTGCG	0.983
TAGGCCTATA	1.01
TAGGCGCTAC	1.69
TAGGCTTGTG	0.997
TAGGGATCTT	0.977

Sequence	switch fluorescence ratio
TAGGGGACTC	1.44
TAGGGTATAC	1.07
TAGGGTGCAT	1.04
TAGGGTGCCA	0.946
TAGGTAATGC	1.39
TAGGTACTCG	1.03
TAGGTAGACT	0.92
TAGGTCAAGC	0.992
TAGGTCATGT	1.04
TAGGTCCTGA	0.961
TAGGTCGG	0.997
TAGGTCGGGG	0.97
TAGGTGGT	1.02
TAGGTGTTGA	1.18
TAGGTTGACA	0.978
TAGGTTTTCA	1.01
TAGTAAGGCA	1.01
TAGTACTTAG	1.01
TAGTAGGGTC	0.989
TAGTAGTAT	0.99
TAGTATAGGG	1.04
TAGTATTCCA	0.972
TAGTCAAGAT	1.05
TAGTCACGGG	1.01
TAGTCATTCT	0.997
TAGTCATTGT	1

Sequence	switch fluorescence ratio
TAGTCCGGTT	1.03
TAGTCCTATC	1.02
TAGTCGATAC	3.21
TAGTCGTGAC	1.03
TAGTCTGTCT	0.984
TAGTCTTAGT	0.995
TAGTCTTATC	1.01
TAGTGACCCA	0.975
TAGTGACGGG	1.01
TAGTGAGCTG	0.95
TAGTGCGTCA	0.988
TAGTGGCA	0.944
TAGTGGTTAC	1.04
TAGTGTCTTA	0.997
TAGTGTGGTT	0.959
TAGTGTTCCG	0.91
TAGTTACGC	0.987
TAGTTATGCG	1.05
TAGTTCCCC	1
